Test results reported in the supplement of paper PMC12217912.
This is one part of the list. Sequences were assembled here from the parent chain. Inactive controls read about 0.05.

B1: TEV protease; numbered along this chain (parent)
chain: MGESLFKGPRDYNPISSSICHLTNESDGHTTSLYGIGFGPFIITNKHLFRRNNGTLVVQSLHGVFKVKDTTTLQQHLVDGRDMIIIRMPKDFPPFPQKLKFREPQREERICLVTTNFQTKSMSSMVSDTSCTFPSGDGIFWKHWIQTKDGQCGSPLVSTRDGFIVGIHSASNFTNTNNYFTSVPKNFMELLTNQEAQQWVSGWRLNADSVLWGGHKVFMVKPEEPFQPVKEATQL

Variants of: B1
Experiment: raw area under fraction-flipped curve 0-4 h after induction (AUC4h, not background-subtracted), DNA-recorder readout of cleavage of the substrate (dimensionless); higher = more cleavage of the substrate by the protease variant
Details: temperature: 34 °C; time window: 0-4 h after rhamnose induction
Protocol: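 In vivo DNA recorder in E. coli TOP10(DE3) ΔrhaA at 34 °C. Each TEVp single-site mutant (parent TEVp 0) is paired with a single-site variant of the 7-mer TEVs (canonical ENLYFQ|S). The substrate sits between flexible linkers in a Bxb1-sfGFP-TEVs-SsrA fusion, so cleavage stabilises Bxb1 and speeds flipping of a recombination array, read by NGS. The value is the raw area under the fraction-flipped curve over 0-4 h after rhamnose induction (AUC4h), with ≥20 reads per time point. It is not background-subtracted; inactive controls average about 0.047.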
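Further: Bxb1 expression induced with 0.2% (w/v) L-rhamnose at OD600 near 0.5, cultures sampled hourly, flipped fraction per protease–substrate barcode pair counted by paired-end Illumina sequencing.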

MGESLFKGPRDYNPISSSICHLTNESDGHTTSLYGIGFGPFIITNKHLFRRNNGTWVVQSLHGVFKVKDTTTLQQHLVDGRDMIIIRMPKDFPPFPQKLKFREPQREERICLVTTNFQTKSMSSMVSDTSCTFPSGDGIFWKHWIQTKDGQCGSPLVSTRDGFIVGIHSASNFTNTNNYFTSVPKNFMELLTNQEAQQWVSGWRLNADSVLWGGHKVFMVKPEEPFQPVKEATQL [L56W]
area with substrate ENLYFAS: 0.0608
area with substrate ENLYFCS: 0.0178
area with substrate ENLYFDS: 0.0628
area with substrate ENLYFES: 0.0674
area with substrate ENLYFFS: 0.0615
area with substrate ENLYFGS: 0.0528
area with substrate ENLYFHS: 0.0555
area with substrate ENLYFIS: 0.0574
area with substrate ENLYFKS: 0.0462
area with substrate ENLYFMS: 0.0604
area with substrate ENLYFNS: 0.0471
area with substrate ENLYFPS: 0.0529
area with substrate ENLYFRS: 0.0504
area with substrate ENLYFSS: 0.0595
area with substrate ENLYFTS: 0.0575
area with substrate ENLYFVS: 0.0835
area with substrate ENLYFWS: 0.053
area with substrate ENLYFYS: 0.0617

MGESLFKGPRDYNPISSSICHLTNESDGHTTSLYGIGFGPFIITNKHLFRRNNGTTVVQSLHGVFKVKDTTTLQQHLVDGRDMIIIRMPKDFPPFPQKLKFREPQREERICLVTTNFQTKSMSSMVSDTSCTFPSGDGIFWKHWIQTKDGQCGSPLVSTRDGFIVGIHSASNFTNTNNYFTSVPKNFMELLTNQEAQQWVSGWRLNADSVLWGGHKVFMVKPEEPFQPVKEATQL [L56T]
area with substrate ENLYFAS: 0.0401
area with substrate ENLYFCS: 0.0551
area with substrate ENLYFDS: 0.0496
area with substrate ENLYFES: 0.0515
area with substrate ENLYFFS: 0.0781
area with substrate ENLYFHS: 0.0547
area with substrate ENLYFIS: 0.0544
area with substrate ENLYFKS: 0.0669
area with substrate ENLYFMS: 0.0635
area with substrate ENLYFPS: 0.0553
area with substrate ENLYFSS: 0.0556
area with substrate ENLYFTS: 0.0398
area with substrate ENLYFVS: 0.0331
area with substrate ENLYFWS: 0.0477
area with substrate ENLYFYS: 0.0637

MGESLFKGPRDYNPISSSICHLTNESDGHTTSLYGIGFGPFIITNKHLFRRNNGTSVVQSLHGVFKVKDTTTLQQHLVDGRDMIIIRMPKDFPPFPQKLKFREPQREERICLVTTNFQTKSMSSMVSDTSCTFPSGDGIFWKHWIQTKDGQCGSPLVSTRDGFIVGIHSASNFTNTNNYFTSVPKNFMELLTNQEAQQWVSGWRLNADSVLWGGHKVFMVKPEEPFQPVKEATQL [L56S]
area with substrate ENLYFAS: 0.0307
area with substrate ENLYFDS: 0.042
area with substrate ENLYFES: 0.0633
area with substrate ENLYFFS: 0.053
area with substrate ENLYFGS: 0.044
area with substrate ENLYFHS: 0.053
area with substrate ENLYFIS: 0.0463
area with substrate ENLYFKS: 0.0542
area with substrate ENLYFMS: 0.0543
area with substrate ENLYFNS: 0.0518
area with substrate ENLYFPS: 0.0421
area with substrate ENLYFRS: 0.0546
area with substrate ENLYFVS: 0.0357
area with substrate ENLYFWS: 0.0481

MGESLFKGPRDYNPISSSICHLTNESDGHTTSLYGIGFGPFIITNKHLFRRNNGTIVVQSLHGVFKVKDTTTLQQHLVDGRDMIIIRMPKDFPPFPQKLKFREPQREERICLVTTNFQTKSMSSMVSDTSCTFPSGDGIFWKHWIQTKDGQCGSPLVSTRDGFIVGIHSASNFTNTNNYFTSVPKNFMELLTNQEAQQWVSGWRLNADSVLWGGHKVFMVKPEEPFQPVKEATQL [L56I]
area with substrate ENLYFAS: 0.0668
area with substrate ENLYFCS: 0.0545
area with substrate ENLYFES: 0.0682
area with substrate ENLYFGS: 0.0598
area with substrate ENLYFHS: 0.0546
area with substrate ENLYFIS: 0.0371
area with substrate ENLYFLS: 0.0349
area with substrate ENLYFMS: 0.0599
area with substrate ENLYFNS: 0.0666
area with substrate ENLYFPS: 0.0605
area with substrate ENLYFRS: 0.0747
area with substrate ENLYFTS: 0.0578
area with substrate ENLYFYS: 0.0572

MGESLFKGPRDYNPISSSICHLTNESDGHTTSLYGIGFGPFIITNKHLFRRNNGTPVVQSLHGVFKVKDTTTLQQHLVDGRDMIIIRMPKDFPPFPQKLKFREPQREERICLVTTNFQTKSMSSMVSDTSCTFPSGDGIFWKHWIQTKDGQCGSPLVSTRDGFIVGIHSASNFTNTNNYFTSVPKNFMELLTNQEAQQWVSGWRLNADSVLWGGHKVFMVKPEEPFQPVKEATQL [L56P]
area with substrate ENLYFAS: 0.0437
area with substrate ENLYFCS: 0.0293
area with substrate ENLYFDS: 0.0467
area with substrate ENLYFES: 0.0501
area with substrate ENLYFHS: 0.041
area with substrate ENLYFIS: 0.0398
area with substrate ENLYFKS: 0.0589
area with substrate ENLYFMS: 0.0499
area with substrate ENLYFNS: 0.0501
area with substrate ENLYFPS: 0.0432
area with substrate ENLYFRS: 0.035
area with substrate ENLYFSS: 0.0621
area with substrate ENLYFTS: 0.0435
area with substrate ENLYFVS: 0.0397
area with substrate ENLYFWS: 0.051
area with substrate ENLYFYS: 0.0366

MGESLFKGPRDYNPISSSICHLTNESDGHTTSLYGIGFGPFIITNKHLFRRNNGTCVVQSLHGVFKVKDTTTLQQHLVDGRDMIIIRMPKDFPPFPQKLKFREPQREERICLVTTNFQTKSMSSMVSDTSCTFPSGDGIFWKHWIQTKDGQCGSPLVSTRDGFIVGIHSASNFTNTNNYFTSVPKNFMELLTNQEAQQWVSGWRLNADSVLWGGHKVFMVKPEEPFQPVKEATQL [L56C]
area with substrate ENLYFAS: 0.0591
area with substrate ENLYFCS: 0.0651
area with substrate ENLYFDS: 0.0687
area with substrate ENLYFES: 0.0406
area with substrate ENLYFFS: 0.07
area with substrate ENLYFGS: 0.0609
area with substrate ENLYFHS: 0.0629
area with substrate ENLYFIS: 0.0524
area with substrate ENLYFMS: 0.0591
area with substrate ENLYFNS: 0.0606
area with substrate ENLYFSS: 0.0719
area with substrate ENLYFTS: 0.0507
area with substrate ENLYFWS: 0.0436
area with substrate ENLYFYS: 0.0295

MGESLFKGPRDYNPISSSICHLTNESDGHTTSLYGIGFGPFIITNKHLFRRNNGTQVVQSLHGVFKVKDTTTLQQHLVDGRDMIIIRMPKDFPPFPQKLKFREPQREERICLVTTNFQTKSMSSMVSDTSCTFPSGDGIFWKHWIQTKDGQCGSPLVSTRDGFIVGIHSASNFTNTNNYFTSVPKNFMELLTNQEAQQWVSGWRLNADSVLWGGHKVFMVKPEEPFQPVKEATQL [L56Q]
area with substrate ENLYFAS: 0.0327
area with substrate ENLYFCS: 0.0387
area with substrate ENLYFES: 0.0423
area with substrate ENLYFFS: 0.059
area with substrate ENLYFGS: 0.0407
area with substrate ENLYFHS: 0.0594
area with substrate ENLYFIS: 0.0292
area with substrate ENLYFKS: 0.0472
area with substrate ENLYFMS: 0.0314
area with substrate ENLYFPS: 0.0422
area with substrate ENLYFRS: 0.0474
area with substrate ENLYFTS: 0.0388
area with substrate ENLYFWS: 0.0399
area with substrate ENLYFYS: 0.0469

MGESLFKGPRDYNPISSSICHLTNESDGHTTSLYGIGFGPFIITNKHLFRRNNGTYVVQSLHGVFKVKDTTTLQQHLVDGRDMIIIRMPKDFPPFPQKLKFREPQREERICLVTTNFQTKSMSSMVSDTSCTFPSGDGIFWKHWIQTKDGQCGSPLVSTRDGFIVGIHSASNFTNTNNYFTSVPKNFMELLTNQEAQQWVSGWRLNADSVLWGGHKVFMVKPEEPFQPVKEATQL [L56Y]
area with substrate ENLYFAS: 0.0609
area with substrate ENLYFDS: 0.0604
area with substrate ENLYFES: 0.0536
area with substrate ENLYFFS: 0.0559
area with substrate ENLYFGS: 0.0528
area with substrate ENLYFHS: 0.0561
area with substrate ENLYFIS: 0.0515
area with substrate ENLYFKS: 0.0609
area with substrate ENLYFMS: 0.0508
area with substrate ENLYFNS: 0.0407
area with substrate ENLYFPS: 0.0578
area with substrate ENLYFRS: 0.0485
area with substrate ENLYFTS: 0.0256

MGESLFKGPRDYNPISSSICHLTNESDGHTTSLYGIGFGPFIITNKHLFRRNNGTLVVQSGHGVFKVKDTTTLQQHLVDGRDMIIIRMPKDFPPFPQKLKFREPQREERICLVTTNFQTKSMSSMVSDTSCTFPSGDGIFWKHWIQTKDGQCGSPLVSTRDGFIVGIHSASNFTNTNNYFTSVPKNFMELLTNQEAQQWVSGWRLNADSVLWGGHKVFMVKPEEPFQPVKEATQL [L61G]
area with substrate ENLYFAS: 0.0536
area with substrate ENLYFCS: 0.0832
area with substrate ENLYFES: 0.0536
area with substrate ENLYFFS: 0.0676
area with substrate ENLYFGS: 0.0686
area with substrate ENLYFHS: 0.0935
area with substrate ENLYFIS: 0.0513
area with substrate ENLYFKS: 0.0708
area with substrate ENLYFMS: 0.0641
area with substrate ENLYFNS: 0.0624
area with substrate ENLYFPS: 0.0589
area with substrate ENLYFRS: 0.0571
area with substrate ENLYFTS: 0.0575
area with substrate ENLYFVS: 0.0553
area with substrate ENLYFYS: 0.0755
